From paper PMC5892938
This is one part of the list. At the low end of the ranking the order means little.

biological target: GST-SBP-SLBP (stem-loop binding protein) (UniProt Q14493); assay: targeted RNA Bind-n-Seq; conditions: RBNS binding buffer: 25 mM Tris pH 7.5, 150 mM KCl, 3 mM MgCl2, 0.1% Tween, 0.5 mg/mL BSA, 1 mM DTT; 27 nM protein, 750 pM RNA pool; temperature not stated; high values mean tight binding;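 also: DESeq read counts versus GST-SBP nonspecific binding control pulldown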

Q: For “GGUCACGUCUCAAUCAACUCCUCAGAGGGGGGGAAAACCCCUUUACCCUCCAACUCAACAGCUCGCAGUCAAG”, which binding signal (log2 fold change) is on record?
A: -0.207

Q: Which binding signal (log2 fold change) does the source give for “GGUCACGUCUCAAUCAACUCUUUUCCCAGGGAAAACCCUGGUAUACUCAACAGCUCGCAGUCAAG” here?
A: 0.0427

Q: How did the binding signal (log2 fold change) turn out when “GGUCACGUCUCAAUCAACUCAAUCCCCAGGGAAAGCCCUGGUUAACUCAACAGCUCGCAGUCAAG” was run?
A: 0.000447

Q: For “GGUCACGUCUCAAUCAACUCAAGUCCCAGGGAAAACCCUGGCAUAUUCAACAGCUCGCAGUCAAG”, which binding signal (log2 fold change) is on record?
A: -0.479

Q: For “GGUCACGUCUCAAUCAACUCAAUUUCAGGAGUUUGCUCCUGCUAUCUCAACAGCUCGCAGUCAAG”, which binding signal (log2 fold change) is on record?
A: 0.126

Q: Which binding signal (log2 fold change) does the source give for “GGUCACGUCUCAAUCAACUCAUCCCCAGGAGUUUGCUCCUGCUUUUUCAACAGCUCGCAGUCAAG” here?
A: 0.112

Q: With “GGUCACGUCUCAAUCAACUCAAUCCCCAGGGAAAACCCUGGUAAUCUCAACAGCUCGCAGUCAAG” as the sequence, how does the binding signal (log2 fold change) read?
A: -0.131

Q: With “GGUCACGUCUCAAUCAACUCUUUCUCCAGGGAAAGCCCUGGUUAAUUCAACAGCUCGCAGUCAAG” as the sequence, how does the binding signal (log2 fold change) read?
A: -0.116

Q: “GGUCACGUCUCAAUCAACUCAUUUUCAGGAGUUUCCUCCUGUUUACUCAACAGCUCGCAGUCAAG” was tested. Which binding signal (log2 fold change) did it give?
A: 0.0375

Q: For “GGUCACGUCUCAAUCAACUCUUUUUCCAGGGAAACCCCUGGUAAUCUCAACAGCUCGCAGUCAAG”, which binding signal (log2 fold change) is on record?
A: -0.0465

Q: How did the binding signal (log2 fold change) turn out when “GGUCACGUCUCAAUCAACUCAAUUCCCAGGGAAAACCCUGGCUAAUUCAACAGCUCGCAGUCAAG” was run?
A: -0.0744

Q: “GGUCACGUCUCAAUCAACUCAAUCCCAGGAGUUUACUCCUGUAAAUUCAACAGCUCGCAGUCAAG” was tested. Which binding signal (log2 fold change) did it give?
A: 0.0428

Q: For “GGUCACGUCUCAAUCAACUCUAUUUCAGGAGUUUGCUCCUGCUUUUUCAACAGCUCGCAGUCAAG”, which binding signal (log2 fold change) is on record?
A: -0.112

Q: How did the binding signal (log2 fold change) turn out when “GGUCACGUCUCAAUCAACUCUAUUCCAGGAGUUUACUCCUGCUAAUUCAACAGCUCGCAGUCAAG” was run?
A: -0.0891

Q: For “GGUCACGUCUCAAUCAACUCUUCCUCCAGGGAAAGCCCUGGCAAUCUCAACAGCUCGCAGUCAAG”, which binding signal (log2 fold change) is on record?
A: -0.053

Q: “GGUCACGUCUCAAUCAACUCAUCUUCCAGGGAAACCCCUGGCAUAUUCAACAGCUCGCAGUCAAG” was tested. Which binding signal (log2 fold change) did it give?
A: 0.161

Q: How did the binding signal (log2 fold change) turn out when “GGUCACGUCUCAAUCAACUCUUCCCCCAGGGAAAGCCCUGGUAUUCUCAACAGCUCGCAGUCAAG” was run?
A: 0.14

Q: “GGUCACGUCUCAAUCAACUCAUCAGAGGGGGGGAAAACCCCUUUGCCCUCCAUUUCAACAGCUCGCAGUCAAG” was tested. Which binding signal (log2 fold change) did it give?
A: -0.122

Q: For “GGUCACGUCUCAAUCAACUCAACUUCAGGAGUUUUCUCCUGUUAUCUCAACAGCUCGCAGUCAAG”, which binding signal (log2 fold change) is on record?
A: 0.102

Q: Which binding signal (log2 fold change) does the source give for “GGUCACGUCUCAAUCAACUCAUCCCCAGGAGUUUGCUCCUGCUUUCUCAACAGCUCGCAGUCAAG” here?
A: 0.26

Q: How did the binding signal (log2 fold change) turn out when “GGUCACGUCUCAAUCAACUCAUCGCCCAGGGAAAUCCCUGGUAAAUUCAACAGCUCGCAGUCAAG” was run?
A: -0.18

Q: “GGUCACGUCUCAAUCAACUCAACUUCAGGAGUUUGCUCCUGCUAAUUCAACAGCUCGCAGUCAAG” was tested. Which binding signal (log2 fold change) did it give?
A: 0.143

Q: For “GGUCACGUCUCAAUCAACUCAAUCCCCAGGGAAAACCCUGGCUUUCUCAACAGCUCGCAGUCAAG”, which binding signal (log2 fold change) is on record?
A: 0.159

Q: “GGUCACGUCUCAAUCAACUCAACUCCAGGAGUUUUCUCCUGUUAUCUCAACAGCUCGCAGUCAAG” was tested. Which binding signal (log2 fold change) did it give?
A: -0.0954

Q: How did the binding signal (log2 fold change) turn out when “GGUCACGUCUCAAUCAACUCUUUUUCAGGAGUUUUCUCCUGCAUACUCAACAGCUCGCAGUCAAG” was run?
A: -0.117

Q: Which binding signal (log2 fold change) does the source give for “GGUCACGUCUCAAUCAACUCAUCUUCCAGGGAAAACCCUGGCAUACUCAACAGCUCGCAGUCAAG” here?
A: 0.114

Q: For “GGUCACGUCUCAAUCAACUCAUUCUCAGGAGUUUGCUCCUGUUUAUUCAACAGCUCGCAGUCAAG”, which binding signal (log2 fold change) is on record?
A: -0.0291

Q: How did the binding signal (log2 fold change) turn out when “GGUCACGUCUCAAUCAACUCCUCAGAGGGGGGGAAAACCCCUUUACCCUCAAAUUCAACAGCUCGCAGUCAAG” was run?
A: -0.172

Q: How did the binding signal (log2 fold change) turn out when “GGUCACGUCUCAAUCAACUCCUCAGAGGGGGGGAAAACCCCUUUGCCCUCAUAAUCAACAGCUCGCAGUCAAG” was run?
A: 0.29

Q: “GGUCACGUCUCAAUCAACUCAGUCCCCAGGGAAACCCCUGGUAUUUUCAACAGCUCGCAGUCAAG” was tested. Which binding signal (log2 fold change) did it give?
A: 0.335

Q: For “GGUCACGUCUCAAUCAACUCUAGUCCCAGGGAAAGCCCUGGUAAUUUCAACAGCUCGCAGUCAAG”, which binding signal (log2 fold change) is on record?
A: -0.184

Q: “GGUCACGUCUCAAUCAACUCAUACGAGGGGGGGAAAACCCCUUUACCCUCCAUAUCAACAGCUCGCAGUCAAG” was tested. Which binding signal (log2 fold change) did it give?
A: 0.156

Q: How did the binding signal (log2 fold change) turn out when “GGUCACGUCUCAAUCAACUCAACUUCCAGGGAAACCCCUGGCUAUUUCAACAGCUCGCAGUCAAG” was run?
A: 0.119

Q: “GGUCACGUCUCAAUCAACUCAUUCGCAGGAGUUUCCUCCUGGUAUCUCAACAGCUCGCAGUCAAG” was tested. Which binding signal (log2 fold change) did it give?
A: 0.0215

Q: With “GGUCACGUCUCAAUCAACUCAUUUCCAGGAGUUUGCUCCUGUAAUUUCAACAGCUCGCAGUCAAG” as the sequence, how does the binding signal (log2 fold change) read?
A: 0.289

Q: How did the binding signal (log2 fold change) turn out when “GGUCACGUCUCAAUCAACUCUAUCUCAGGAGUUUCCUCCUGCUUUUUCAACAGCUCGCAGUCAAG” was run?
A: 0.241

Q: For “GGUCACGUCUCAAUCAACUCUUUUUCCAGGGAAAUCCCUGGCUUACUCAACAGCUCGCAGUCAAG”, which binding signal (log2 fold change) is on record?
A: -0.0473
